This note sets out measurements from patent US20130203078.

The target in this data set is T1, human native unmodified procaspase-3 (huCasp3) (UniProt P42574).
T1 sequence: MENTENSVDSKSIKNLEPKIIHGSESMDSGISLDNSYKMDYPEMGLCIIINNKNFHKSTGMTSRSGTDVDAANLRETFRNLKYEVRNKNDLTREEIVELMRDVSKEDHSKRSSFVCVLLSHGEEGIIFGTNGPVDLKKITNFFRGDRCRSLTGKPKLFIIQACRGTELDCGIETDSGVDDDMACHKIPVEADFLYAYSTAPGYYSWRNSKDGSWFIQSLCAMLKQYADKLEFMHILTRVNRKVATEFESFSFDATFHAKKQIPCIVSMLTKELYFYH

For the substance “human granzyme B secreted by stably transfected RBL-2H3 cells (letters omitted)”, the Fluorescence of caspase-3 treated with granzyme B (DEVD-AMC substrate) came out at 43500 fluorescence.
